In patent publication US11618753B2 (priority 2018, dated 2023):

The compounds below were run on MLKL phosphorylation, HT29-L23 human colorectal adenocarcinoma cells (assay: cells). Settings: read-out: pMLKL HCS Cell Assay (IC50, uM).
Work on Cc1cc(F)c(-c2cc(C(F)(F)F)c3c(N)ncnn23)cc1C(=O)N[C@@H]1CN(C(=O)c2cccc(Cl)n2)C[C@@H]1F [Example 852, 5-[4-amino-5-(trifluoromethyl)pyrrolo[2,1-f][1,2,4]triazin-7-yl]-N-[(3R,4S)-1-(6-chloropyridine-2-carbonyl)-4-fluoropyrrolidin-3-yl]-4-fluoro-2-methylbenzamide] yielded an IC50 of 0.011 µM. Cc1cc(F)c(-c2cc(C(F)(F)F)c3c(N)ncnn23)cc1C(=O)N[C@@H]1CN(C(=O)c2nc(Cl)ccc2C(F)(F)F)C[C@@H]1F [Example 853, 5-[4-amino-5-(trifluoromethyl)pyrrolo[2,1-f][1,2,4]triazin-7-yl]-N-[(3R,4S)-1-[6-chloro-3-(trifluoromethyl)pyridine-2-carbonyl]-4-fluoropyrrolidin-3-yl]-4-fluoro-2-methylbenzamide] showed an IC50 of 0.043 µM. Cc1cc(F)c(-c2cc(C(F)(F)F)c3c(N)ncnn23)cc1C(=O)N[C@@H]1CN(C(=O)c2ncccc2Br)C[C@@H]1F [Example 854, 5-[4-amino-5-(trifluoromethyl)pyrrolo[2,1-f][1,2,4]triazin-7-yl]-N-[(3R,4S)-1-(3-bromopyridine-2-carbonyl)-4-fluoropyrrolidin-3-yl]-4-fluoro-2-methylbenzamide] was tested, and the IC50 was 0.022 µM. For Cc1cc(F)c(-c2cc(C(F)(F)F)c3c(N)ncnn23)cc1C(=O)N[C@@H]1CN(C(=O)c2cnccc2C(F)(F)F)C[C@@H]1F [Example 855, 5-[4-amino-5-(trifluoromethyl)pyrrolo[2,1-f][1,2,4]triazin-7-yl]-4-fluoro-N-[(3R,4S)-4-fluoro-1-[4-carbonyl]pyrrolidin-3-yl]-2-methylbenzamide], the IC50 was 0.041 µM. Compound Cc1cc(F)c(-c2cc(C(F)(F)F)c3c(N)ncnn23)cc1C(=O)N[C@@H]1CN(C(=O)CC(C)(O)C(F)(F)F)C[C@@H]1F (stereo partly drawn) [Example 856, 5-[4-amino-5-(trifluoromethyl)pyrrolo[2,1-f][1,2,4]triazin-7-yl]-4-fluoro-N-[(3R,4S)-4-fluoro-1-(4,4,4-trifluoro-3-hydroxy-3-methylbutanoyl)pyrrolidin-3-yl]-2-methylbenzamide] has an IC50 of 0.004 µM. For CCC(O)(C(=O)N1C[C@H](F)[C@H](NC(=O)c2cc(-c3cc(C(F)(F)F)c4c(N)ncnn34)c(F)cc2C)C1)C(F)(F)F (stereo partly drawn) [Example 857, 5-[4-amino-5-(trifluoromethyl)pyrrolo[2,1-f][1,2,4]triazin-7-yl]-4-fluoro-N-[(3R,4S)-4-fluoro-1-[2-hydroxy-2-(trifluoromethyl)butanoyl]pyrrolidin-3-yl]-2-methylbenzamide], the IC50 was 0.0063 µM. Work on Cc1cc(F)c(-c2cc(C(F)(F)F)c3c(N)ncnn23)cc1C(=O)N[C@@H]1CN(C(=O)C(C)C(F)(F)F)C[C@@H]1F (stereo partly drawn) [Example 858, 5-[4-amino-5-(trifluoromethyl)pyrrolo[2,1-f][1,2,4]triazin-7-yl]-4-fluoro-N-[(3R,4S)-4-fluoro-1-(3,3,3-trifluoro-2-methylpropanoyl)pyrrolidin-3-yl]-2-methylbenzamide] yielded an IC50 of 0.0072 µM. Compound Cc1cc(F)c(-c2cc(C(F)(F)F)c3c(N)ncnn23)cc1C(=O)N[C@@H]1CN(C(=O)C2CCC(F)(F)C2)C[C@@H]1F (stereo partly drawn) [Example 859, 5-[4-amino-5-(trifluoromethyl)pyrrolo[2,1-f][1,2,4]triazin-7-yl]-N-[(3R,4S)-1-(3,3-difluorocyclopentanecarbonyl)-4-fluoropyrrolidin-3-yl]-4-fluoro-2-methylbenzamide] has an IC50 of 0.0035 µM. With Cc1cc(F)c(-c2cc(C(F)(F)F)c3c(N)ncnn23)cc1C(=O)N[C@@H]1CN(C(=O)C(C)(F)C(F)(F)F)C[C@@H]1F (stereo partly drawn) [Example 863, 5-[4-amino-5-(trifluoromethyl)pyrrolo[2,1-f][1,2,4]triazin-7-yl]-4-fluoro-N-[(3R,4S)-4-fluoro-1-(2,3,3,3-tetrafluoro-2-methylpropanoyl)pyrrolidin-3-yl]-2-methylbenzamide] the IC50 was 0.0083 µM. For Cc1cc(F)c(-c2cc(C(F)(F)F)c3c(N)ncnn23)cc1C(=O)N[C@@H]1CN(C(=O)c2ccc(Cl)nn2)C[C@@H]1F [Example 864, 5-[4-amino-5-(trifluoromethyl)pyrrolo[2,1-f][1,2,4]triazin-7-yl]-N-[(3R,4S)-1-(6-chloropyridazine-3-carbonyl)-4-fluoropyrrolidin-3-yl]-4-fluoro-2-methylbenzamide], the IC50 was 0.131 µM. Work on Cc1cc(F)c(-c2cc(C(F)(F)F)c3c(N)ncnn23)cc1C(=O)N[C@@H]1CN(C(=O)c2cccnn2)C[C@@H]1F [Example 865, 5-[4-amino-5-(trifluoromethyl)pyrrolo[2,1-f][1,2,4]triazin-7-yl]-4-fluoro-N-[(3R,4S)-4-fluoro-1-(pyridazine-3-carbonyl)pyrrolidin-3-yl]-2-methylbenzamide] yielded an IC50 of 0.146 µM. Cc1ccc(C(=O)N2C[C@H](F)[C@H](NC(=O)c3cc(-c4cc(C(F)(F)F)c5c(N)ncnn45)c(F)cc3C)C2)nn1 [Example 866, 5-[4-amino-5-(trifluoromethyl)pyrrolo[2,1-f][1,2,4]triazin-7-yl]-4-fluoro-N-[(3R,4S)-4-fluoro-1-(6-methylpyridazine-3-carbonyl)pyrrolidin-3-yl]-2-methylbenzamide] gave an IC50 of 0.347 µM. In the case of COc1cc(F)c(-c2cc(C(F)(F)F)c3c(N)ncnn23)cc1C(=O)N[C@@H]1CN(C(=O)[C@@](C)(O)C(F)(F)F)C[C@@H]1F [Example 867, 5-[4-amino-5-(trifluoromethyl)pyrrolo[2,1-f][1,2,4]triazin-7-yl]-4-fluoro-N-[(3R,4S)-4-fluoro-1-[(2R)-3,3,3-trifluoro-2-hydroxy-2-methylpropanoyl]pyrrolidin-3-yl]-2-methoxybenzamide], the IC50 is reported as 0.0023 µM. COc1cc(F)c(-c2cc(C(F)(F)F)c3c(N)ncnn23)cc1C(=O)N[C@@H]1CN(C(=O)C(C)(C)F)C[C@@H]1F [Example 868, 5-[4-amino-5-(trifluoromethyl)pyrrolo[2,1-f][1,2,4]triazin-7-yl]-4-fluoro-N-[(3R,4S)-4-fluoro-1-(2-fluoro-2-methylpropanoyl)pyrrolidin-3-yl]-2-methoxybenzamide] was tested, and the IC50 was 0.0092 µM. Compound COc1cc(F)c(-c2cc(C(F)(F)F)c3c(N)ncnn23)cc1C(=O)N[C@@H]1CN(C(=O)C2CC2(F)F)C[C@@H]1F (stereo partly drawn) [Example 869, 5-[4-amino-5-(trifluoromethyl)pyrrolo[2,1-f][1,2,4]triazin-7-yl]-N-[(3R,4S)-1-(2,2-difluorocyclopropanecarbonyl)-4-fluoropyrrolidin-3-yl]-4-fluoro-2-methoxybenzamide] has an IC50 of 0.0056 µM. Work on COc1cc(F)c(-c2cc(C(F)(F)F)c3c(N)ncnn23)cc1C(=O)N[C@@H]1CN(C(=O)C2CCC(F)(F)C2)C[C@@H]1F (stereo partly drawn) [Example 871, 5-[4-amino-5-(trifluoromethyl)pyrrolo[2,1-f][1,2,4]triazin-7-yl]-N-[(3R,4S)-1-(3,3-difluorocyclopentanecarbonyl)-4-fluoropyrrolidin-3-yl]-4-fluoro-2-methoxybenzamide] yielded an IC50 of 0.0062 µM. With COc1cc(F)c(-c2cc(C(F)(F)F)c3c(N)ncnn23)cc1C(=O)N[C@@H]1CN(C(=O)C2CC(F)C2)C[C@@H]1F (stereo partly drawn) [Example 872, 5-[4-amino-5-(trifluoromethyl)pyrrolo[2,1-f][1,2,4]triazin-7-yl]-4-fluoro-N-[(3R,4S)-4-fluoro-1-(3-fluorocyclobutanecarbonyl)pyrrolidin-3-yl]-2-methoxybenzamide] the IC50 was 0.0076 µM. For COc1cc(F)c(-c2cc(C(F)(F)F)c3c(N)ncnn23)cc1C(=O)N[C@@H]1CN(C(=O)c2ccc(F)cc2)C[C@@H]1F [Example 873, 5-[4-amino-5-(trifluoromethyl)pyrrolo[2,1-f][1,2,4]triazin-7-yl]-4-fluoro-N-[(3R,4S)-4-fluoro-1-(4-fluorobenzoyl)pyrrolidin-3-yl]-2-methoxybenzamide], the IC50 was 0.0086 µM. In the case of COc1cc(F)c(-c2cc(C(F)(F)F)c3c(N)ncnn23)cc1C(=O)N[C@@H]1CN(C(=O)CC(F)(F)F)C[C@@H]1F [Example 874, 5-[4-amino-5-(trifluoromethyl)pyrrolo[2,1-f][1,2,4]triazin-7-yl]-4-fluoro-N-[(3R,4S)-4-fluoro-1-(3,3,3-trifluoropropanoyl)pyrrolidin-3-yl]-2-methoxybenzamide], the IC50 is reported as 0.025 µM. COc1cc(F)c(-c2cc(C(F)(F)F)c3c(N)ncnn23)cc1C(=O)N[C@@H]1CN(C(=O)CC(C)C(F)(F)F)C[C@@H]1F (stereo partly drawn) [Example 875, 5-[4-amino-5-(trifluoromethyl)pyrrolo[2,1-f][1,2,4]triazin-7-yl]-4-fluoro-N-[(3R,4S)-4-fluoro-1-(4,4,4-trifluoro-3-methylbutanoyl)pyrrolidin-3-yl]-2-methoxybenzamide] was tested, and the IC50 was 0.0032 µM. In the case of COc1cc(F)c(-c2cc(C(F)(F)F)c3c(N)ncnn23)cc1C(=O)N[C@@H]1CN(C(=O)CC(C(F)(F)F)C(F)(F)F)C[C@@H]1F [Example 876, 5-[4-amino-5-(trifluoromethyl)pyrrolo[2,1-f][1,2,4]triazin-7-yl]-4-fluoro-N-[(3R,4S)-4-fluoro-1-[4,4,4-trifluoro-3-(trifluoromethyl)butanoyl]pyrrolidin-3-yl]-2-methoxybenzamide], the IC50 is reported as 0.0034 µM. With CCC(O)(C(=O)N1C[C@H](F)[C@H](NC(=O)c2cc(-c3cc(C(F)(F)F)c4c(N)ncnn34)c(F)cc2OC)C1)C(F)(F)F (stereo partly drawn) [Example 877, 5-[4-amino-5-(trifluoromethyl)pyrrolo[2,1-f][1,2,4]triazin-7-yl]-4-fluoro-N-[(3R,4S)-4-fluoro-1-[2-hydroxy-2-(trifluoromethyl)butanoyl]pyrrolidin-3-yl]-2-methoxybenzamide] the IC50 was 0.0039 µM. COc1cc(F)c(-c2cc(C(F)(F)F)c3c(N)ncnn23)cc1C(=O)N[C@@H]1CN(C(=O)C(C)C(F)(F)F)C[C@@H]1F (stereo partly drawn) [Example 878, 5-[4-amino-5-(trifluoromethyl)pyrrolo[2,1-f][1,2,4]triazin-7-yl]-4-fluoro-N-[(3R,4S)-4-fluoro-1-(3,3,3-trifluoro-2-methylpropanoyl)pyrrolidin-3-yl]-2-methoxybenzamide] gave an IC50 of 0.0089 µM. COc1cc(F)c(-c2cc(C(F)(F)F)c3c(N)ncnn23)cc1C(=O)N[C@@H]1CN(C(=O)CC(C)(O)C(F)(F)F)C[C@@H]1F (stereo partly drawn) [Example 879, 5-[4-amino-5-(trifluoromethyl)pyrrolo[2,1-f][1,2,4]triazin-7-yl]-4-fluoro-N-[(3R,4S)-4-fluoro-1-(4,4,4-trifluoro-3-hydroxy-3-methylbutanoyl)pyrrolidin-3-yl]-2-methoxybenzamide] was tested, and the IC50 was 0.0046 µM.
